Data from article PMC12136788.
The list shows a part of the results.

T1: UNK ZnF1-3 (human, UniProt Q9C0B0 31-174)
T1 sequence: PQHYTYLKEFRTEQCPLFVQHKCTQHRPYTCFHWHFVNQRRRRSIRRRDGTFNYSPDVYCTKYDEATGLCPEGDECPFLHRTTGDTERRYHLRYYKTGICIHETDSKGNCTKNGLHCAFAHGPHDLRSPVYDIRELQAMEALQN

B1: chr15:75756842:75756843:-_ENSMUSG00000022570_ENSMUST00000023231|mus_hu|FALSE|FALSE (ssRNA)
RNA: GGGAGUUCUACAGUCCGACGAUCCAGCACGUGGCCAUCCUCGAUGUUGAAGUUGUCGUGGGGCCCGAAGACGUUGGUGGGGAUGACAGCGGUGAAGGUGCAGCCGUACUGCUGGAAGUAGGCCCUGUUCUGCACGUCGAUCAUCAACAGAGGAUUGAGCAUCA
B2: chr7:44244176:44244177:+_ENSG00000106636_ENST00000223369|hu_mus|hu_hu_hu_mus_False|18_18 (ssRNA)
RNA: GGGAGUUCUACAGUCCGACGAUCACUGUCGCUCCGGACGUAGACAUGGCAAAGAUACUCUUGUUCUUUGACAGAAGCUCUGCUGCCUUUCCCCGAGCGUUCCACAAUCAGUUGACUCGUGAAGGUCAUGAAUUCCUGCACACUCAACAGAGGAUUGAGCAUCA
B3: chr10:120825051:120825052:-_ENSG00000107581_ENST00000369144|hu_mus|FALSE|FALSE (ssRNA)
RNA: GGGAGUUCUACAGUCCGACGAUCAUCCAAAAGUCGAGCAAUAUCAGUUCGCUCAGGAGUAAUAGGAAUGGAAAGAGUCGCCAAAAGGACUCUAGUAGACAUUCUUUGCAUCUCUUCUUGUGUAAGAUUCUUUCUCAUUUCUCUCAACAGAGGAUUGAGCAUCA
B4: chr3:149684364:149684365:-_ENSG00000070087_ENST00000239940|hu_mus|FALSE|FALSE (ssRNA)
RNA: GGGAGUUCUACAGUCCGACGAUCUGAGUAUGCCUUCUUAUUCAAUCCGCCUCCAUGGACCCCUUCUUUUCCCAUUACAAAGACCAAGACUCUCCCGGCCCUGCCAACAGCAACGUUGUAUGUUGGCUCCCCACCUUGACUCUUCAACAGAGGAUUGAGCAUCA
B5: chr7:141441981:141441982:+_ENSG00000106028_ENST00000265304|hu_mus|hu_hu_hu_mus_False|1_78 (ssRNA)
RNA: GGGAGUUCUACAGUCCGACGAUCCUCAUGUCUUACAAACUGACGAAAUACCUGUAAUACAGGUCUUCGAAACAUGGCUUCUGUUUUUCUUACAACCUAAUCUUUAGGCUUUUCCUAAAGGAAAGAAAGAAAAGAGAAGCCCAGCAACAGAGGAUUGAGCAUCA
B6: chr3:148802587:148802588:-_ENSG00000071794_ENST00000310053|hu_mus|hu_hu_hu_mus_False|28_58 (ssRNA)
RNA: GGGAGUUCUACAGUCCGACGAUCUCCAACAACUUGUCCUCUCAUAGUUCCAAAUAAAACCAAAUCUUGCUCUUCAUCACUAGUUAGGAAGUCAUCUGGAGGAAUAACAUCUUGGAAUUCAAAAUGUGGCAAGAAAGUUGAGUACAACAGAGGAUUGAGCAUCA
B7: chr4:149991449:149991450:+_ENSMUSG00000039852_ENSMUST00000105680|mus_hu|FALSE|FALSE (ssRNA)
RNA: GGGAGUUCUACAGUCCGACGAUCACGCUCGGCUGCCAGUCUGUCAGGGUAGCUCAUCUCGGGCCGCAGCUGGGGGCCCGCCAGGGCCAGUCUCUCCCUCUCCAAGGGGUUCAGGCCCGGGUGGAAAGAAGCAAAAGGGUGGGGCAACAGAGGAUUGAGCAUCA
B8: chr14:67423352:67423353:-_ENSMUSG00000022048_ENSMUST00000022629|mus_mus|motif|central (ssRNA)
RNA: GGGAGUUCUACAGUCCGACGAUCAAACUAGGAUAGCACAAAACUAUGGUGGUGGGGGCAAAACUAAGAUCUGCUCAGGCGGUGCCUGAGACCAAACUGGGUUGCCUGGCUUUAAGAGCAGACAGAGUUAAGAGGAAAAAAAAACAACAGAGGAUUGAGCAUCA
B9: chr11:47660561:47660562:-_ENSG00000109919_ENST00000530428|hu_mus|FALSE|FALSE (ssRNA)
RNA: GGGAGUUCUACAGUCCGACGAUCAGCAUAGCAAAAGAGGCCAGGAAGCUGACAUACUUGUCGCCCAAAAAUAUUUCGUCCUAUUGUUGGAGGAAGAGGCUCAUAUCCCACCUGGAUGAGCACUUUCACGUACAUGAGCGGCUGCAACAGAGGAUUGAGCAUCA
B10: chr2:5814250:5814251:-_ENSMUSG00000025816_ENSMUST00000102981|mus_mus|motif|central (ssRNA)
RNA: GGGAGUUCUACAGUCCGACGAUCUUCCUUUCAGGCUUCUGAAUUUCUGGUAGAACUGCACAGAAAGGUUUAAUAACUUCGGAAAACUUGAUGCCCAUGGCGGCGGCUCAGCACACCCGGCGGGCACCCGCGGCCUCGCAGCUGCAACAGAGGAUUGAGCAUCA
B11: chr10:73857132:73857133:-_ENSG00000138303_ENST00000317168|hu_hu|motif|central (ssRNA)
RNA: GGGAGUUCUACAGUCCGACGAUCUUUCCAAGAUCCACCUCAGGAGAAGUCAAUUUGUCCACAGGAAGCGUAGUUUCCAAAGCUGUCGGCGGUGAACCUCUGAGAGAUGUGAAUUGAAUUCAGCUUUAGGGAGCCAAAGUAGAACAACAGAGGAUUGAGCAUCA
B12: 103846480_103848510_1781_3pUTR_ENSG00000155096_ENST00000337198|human|control|control (ssRNA)
RNA: GGGAGUUCUACAGUCCGACGAUCCCAAUUUCUCCAGCCAUGUCAAACACACAUCGAGCAUCAGAUAGAGCAUGUACAUAUACUUGAGAUUCUUUGCAAGCACUCGAAACAUGAAAUUUAACCCCAAUUAUUUGGACAUCAAGUCAACAGAGGAUUGAGCAUCA
B13: 49771899_49772126_2358_CDS_ENSG00000102531_ENST00000398316|human|control|control (ssRNA)
RNA: GGGAGUUCUACAGUCCGACGAUCACUCAGAGCCUGGACCCUGCAAUAAUAGGUAGUUGCUGGUGAAAGUCCUUUUAUUUCAUAACUGAGACCAGGCCCACAGUAACAUAUCUGCAUACUUCCUUCAACUCCUCCCCACUCCAGCAACAGAGGAUUGAGCAUCA
B14: chr11:120668454:120668455:-_ENSMUSG00000025153_ENSMUST00000055655|mus_mus|FALSE|FALSE (ssRNA)
RNA: GGGAGUUCUACAGUCCGACGAUCUGCAGUUUAAUUGUGGGAUCAGGAGAGCAUCAAGAGCAGCAUUUUUACCAGGUUGGUGUAAAAAUGACACAGUCCAGACACUUCUUCACACUGACAGCUGCAGAAAAGUCAAAACCCAAGCAACAGAGGAUUGAGCAUCA
B15: 94366630_94367488_332_3pUTR_ENSMUSG00000026260_ENSMUST00000027478|mouse|control|control (ssRNA)
RNA: GGGAGUUCUACAGUCCGACGAUCCCUGCUUCUGGGUAGUGCUUCAUGCCUAGUUGCUGUGCGAUCUCCUUUGCGAGCUUGUUUUUCCCAGAGCAUAUGUUCCCAUCUACUGUUAUCACUCGGCUGUACUCAUGCAGCUUUUUGCAACAGAGGAUUGAGCAUCA
B16: chr4:57314706:57314707:+_ENSG00000128050_ENST00000264221|hu_mus|hu_hu_hu_mus_True|38_108 (ssRNA)
RNA: GGGAGUUCUACAGUCCGACGAUCCAGUAUUUCAAAUAUAGCUUGUGUGGCAUGACUCAUGAUGUCCACUUCAGUCUGCCCUAUAACAAGGCCAGCAAAGCAAAAUUUUGCAGCAAUGAGUUGCUCCUCAGACCACUGUGGAUCCAACAGAGGAUUGAGCAUCA
B17: chr17:49239293:49239294:+_ENSG00000239672_ENST00000393196|hu_hu|FALSE|FALSE (ssRNA)
RNA: GGGAGUUCUACAGUCCGACGAUCGAGAACUCACAGCUCCAAGAGCUUCCCUCCAAAUUAUGAUGAAGUUCCUGUAAAUAACUAGAUUUCCUACAGCCUGGUCCUCUGCCCAUGGGAAGGAGGGGAAAUGGAUGUGAAAAGCAACAACAGAGGAUUGAGCAUCA
B18: chr2:179883191:179883192:+_ENSMUSG00000039050_ENSMUST00000040668|mus_mus|FALSE|FALSE (ssRNA)
RNA: GGGAGUUCUACAGUCCGACGAUCGUAGAUGGAACCGUGGAACCUGAAGUCUUGAUUGAGACCUUCUGAAUAAAAUGCGCUAAUAGGAGGGUGGUGACUGACCUGCUCAGAUAUAAAUCUGAACCCUAAGUCUUCCCUGAUCAACAACAGAGGAUUGAGCAUCA
B19: chr19:36967751:36967752:+_ENSMUSG00000024811_ENSMUST00000025729|mus_mus|FALSE|FALSE (ssRNA)
RNA: GGGAGUUCUACAGUCCGACGAUCAAAGUGAUACUUAGGGAUACUUGUACCAUCACUCUCUUCUUAUGGAACACUGAAGACUAAUUACAGACAUGUCAUUAGCAUAUGGAAAUAUAAAAUACACUACUUUUUUUUCCUUUUAGACAACAGAGGAUUGAGCAUCA
B20: chr2:52995849:52995850:-_ENSMUSG00000061136_ENSMUST00000076313|mus_hu|motif|central (ssRNA)
RNA: GGGAGUUCUACAGUCCGACGAUCACAGAGAACAAAAUCUUAUCACCUGUGCCUUCAGACUGUCAAGUAUCUUUCGGGCAACGGAAUCCCAUUUGAUGGGAUCCUGAAAGGUAGACAAAGGAUCACAGUCACUUAAGUUACAUCCAACAGAGGAUUGAGCAUCA
B21: 60623461_60623581_92_5pUTR_ENSMUSG00000026014_ENSMUST00000140485|mouse|control|control (ssRNA)
RNA: GGGAGUUCUACAGUCCGACGAUCGCCUCCAGUCGCCGCCGCCGCCGCCUCUCCAGGGGCGACGCUCCUCUCCCGAACGCUGAGAGCGCCCGCAGCUCCCGCGGCGCGCGCUCGGCGACUGACUGACCGACCCACAGAGCGGGCCAACAGAGGAUUGAGCAUCA
B22: chr12:8945443:8945444:+_ENSMUSG00000020585_ENSMUST00000020909|mus_hu|FALSE|FALSE (ssRNA)
RNA: GGGAGUUCUACAGUCCGACGAUCGAAACAUAUACAAACUAGAAACAUGCAACCAUCAUCUUCCACAGUCAAGUCACAAUGUCAAAUAUUUUUCUUGCCUCUGCAGAUGAAAAGUUCAGAUCUUAUACCCAACUACUUACUCACCAACAGAGGAUUGAGCAUCA

Each binder was assayed against T1, UNK ZnF1-3 (assay: nsRBNS (natural sequence RNA bind-n-seq); RBNS binding buffer (assumed for nsRBNS): 25 mM Tris pH 7.5, 150 mM KCl, 3 mM MgCl2, 0.01% Triton X-100, 500 ug/ml BSA, 20 U/ml SUPERase-In, 4 C; UNK is unkempt and MSI1 is Musashi-1; names of the RNAs are library labels; protein concentration not given here; high values mean tight binding).

Binder	binding signal
B1	0.958 enrichment R
B2	0.605 enrichment R
B3	0.719 enrichment R
B4	0.684 enrichment R
B5	0.362 enrichment R
B6	1.54 enrichment R
B7	1.41 enrichment R
B8	1.89 enrichment R
B9	2.1 enrichment R
B10	0.878 enrichment R
B11	1.14 enrichment R
B12	1.71 enrichment R
B13	1.16 enrichment R
B14	1.87 enrichment R
B15	0.324 enrichment R
B16	0.87 enrichment R
B17	1.55 enrichment R
B18	1.4 enrichment R
B19	0.504 enrichment R
B20	0.588 enrichment R
B21	0.41 enrichment R
B22	1.27 enrichment R
